{"source": "the supplement of paper PMC8728848", "binders": {"B1": {"name": "VLRB.aGPA.23-GCN4-biotin (Petromyzon marinus) (protein)", "chain": "ACPSQCSCSGTEVNCAGKSLASVPAGIPTTTRVLYLNSNQITKLEPGVFDRLANLRELHLWGNQLVSLPPGVFDNLANLEKLWLNSNQLTSLPAGLFDRLVNLEHLGLCCMKLTELPSGAFDKLTRLKQLGLDQNQLKSIPDGAFARLPSLTHVWLHTNPWDCQCTDILYLSGWVAQHSSIVGEGWPWRHSPDSAKCSGTNTPVRAVTEASTSPSKCP"}}, "test_in_all_cases": "glycan array binding signal (z-score within array); higher = stronger binding", "details_in_all_cases": "glycan notation: IUPAC condensed, linker removed", "key": {"[1]": {"target": "Neu5Ac(a2-6)GlcNAc(b1-4)GlcNAc(b1-4)GlcNAc", "procedure,_shortened": "(§1)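 Arrays were curated from the Consortium for Functional Glycomics database, 3228 in total, and kept only where the protein sequence was available. Binding is expressed as a within-array Z-score. This score was averaged across arrays of the same protein sequence at different concentrations or buffers and across linkers, and negative values can be read as non-binding.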"}, "Neu5Ac(a2-8)Neu5Ac": {"target": "Neu5Ac(a2-8)Neu5Ac", "procedure,_shortened": "as §1"}, "[2]": {"target": "Neu5Ac(a2-8)Neu5Ac(a2-3)Gal(b1-3)GalNAc(b1-4)[Neu5Ac(a2-3)]Gal(b1-4)Glc", "procedure,_shortened": "as §1"}, "[3]": {"target": "Neu5Ac(a2-8)Neu5Ac(a2-3)Gal(b1-3)GalNAc(b1-4)[Neu5Ac(a2-8)Neu5Ac(a2-3)]Gal(b1-4)Glc", "procedure,_shortened": "as §1"}, "[4]": {"target": "Neu5Ac(a2-8)Neu5Ac(a2-3)Gal(b1-4)Glc", "procedure,_shortened": "as §1"}, "[5]": {"target": "Neu5Ac(a2-8)Neu5Ac(a2-3)Gal(b1-4)GlcNAc", "procedure,_shortened": "as §1"}, "[6]": {"target": "Neu5Ac(a2-8)Neu5Ac(a2-3)[Gal(b1-3)GalNAc(b1-4)]Gal(b1-4)Glc", "procedure,_shortened": "as §1"}, "[7]": {"target": "Neu5Ac(a2-8)Neu5Ac(a2-3)[GalNAc(b1-4)]Gal(b1-4)Glc", "procedure,_shortened": "as §1"}, "[8]": {"target": "Neu5Ac(a2-8)Neu5Ac(a2-8)Neu5Ac", "procedure,_shortened": "as §1"}, "[9]": {"target": "Neu5Ac(a2-8)Neu5Ac(a2-8)Neu5Ac(a2-3)Gal(b1-4)Glc", "procedure,_shortened": "as §1"}, "[10]": {"target": "Neu5Ac(a2-8)Neu5Ac(a2-8)Neu5Ac(a2-3)[Gal(b1-3)GalNAc(b1-4)]Gal(b1-4)Glc", "procedure,_shortened": "as §1"}, "[11]": {"target": "Neu5Ac(a2-8)Neu5Ac(a2-8)Neu5Ac(a2-3)[GalNAc(b1-4)]Gal(b1-4)Glc", "procedure,_shortened": "as §1"}, "[12]": {"target": "Neu5Ac(a2-8)Neu5Ac(a2-8)Neu5Ac(a2-8)Neu5Ac(a2-3)[GalNAc(b1-4)]Gal(b1-4)Glc", "procedure,_shortened": "as §1"}, "[13]": {"target": "Neu5Ac(a2-8)Neu5Gc(a2-3)Gal(b1-4)GlcNAc", "procedure,_shortened": "as §1"}, "[14]": {"target": "Neu5Ac(b2-6)Gal(b1-4)GlcNAc", "procedure,_shortened": "as §1"}, "Neu5Ac(b2-6)GalNAc": {"target": "Neu5Ac(b2-6)GalNAc", "procedure,_shortened": "as §1"}, "[15]": {"target": "Neu5Ac9Ac(a2-3)Gal(b1-3)GlcNAc", "procedure,_shortened": "as §1"}, "[16]": {"target": "Neu5Ac9Ac(a2-3)Gal(b1-4)GlcNAc", "procedure,_shortened": "as §1"}, "[17]": {"target": "Neu5Ac9Ac(a2-6)Gal(b1-4)GlcNAc", "procedure,_shortened": "as §1"}, "[18]": {"target": "Neu5Gc(a2-3)Gal(b1-3)GlcNAc", "procedure,_shortened": "as §1"}, "[19]": {"target": "Neu5Gc(a2-3)Gal(b1-3)[Fuc(a1-4)]GlcNAc", "procedure,_shortened": "as §1"}, "Neu5Gc(a2-3)Gal(b1-4)Glc": {"target": "Neu5Gc(a2-3)Gal(b1-4)Glc", "procedure,_shortened": "as §1"}, "[20]": {"target": "Neu5Gc(a2-3)Gal(b1-4)GlcNAc", "procedure,_shortened": "as §1"}, "[21]": {"target": "Neu5Gc(a2-3)Gal(b1-4)GlcNAc(b1-3)Gal(b1-4)GlcNAc(b1-2)Man(a1-3)[Neu5Gc(a2-3)Gal(b1-4)GlcNAc(b1-3)Gal(b1-4)GlcNAc(b1-2)Man(a1-6)]Man(b1-4)GlcNAc(b1-4)GlcNAc", "procedure,_shortened": "as §1"}, "[22]": {"target": "Neu5Gc(a2-3)Gal(b1-4)[Fuc(a1-3)]GlcNAc", "procedure,_shortened": "as §1"}, "[23]": {"target": "Neu5Gc(a2-6)Gal(b1-4)GlcNAc", "procedure,_shortened": "as §1"}, "Neu5Gc(a2-6)GalNAc": {"target": "Neu5Gc(a2-6)GalNAc", "procedure,_shortened": "as §1"}, "[24]": {"target": "Neu5Gc(a2-8)Neu5Ac(a2-3)Gal(b1-4)GlcNAc", "procedure,_shortened": "as §1"}, "[25]": {"target": "Neu5Gc(a2-8)Neu5Gc(a2-3)Gal(b1-4)GlcNAc", "procedure,_shortened": "as §1"}, "[26]": {"target": "Neu5Gc(a2-8)Neu5Gc(a2-3)Gal(b1-4)GlcNAc(b1-3)Gal(b1-4)GlcNAc", "procedure,_shortened": "as §1"}, "[27]": {"target": "Neu5Gc(a2-8)Neu5Gc(a2-6)Gal(b1-4)GlcNAc", "procedure,_shortened": "as §1"}, "[28]": {"target": "Neu5Gc(b2-6)Gal(b1-4)GlcNAc", "procedure,_shortened": "as §1"}}, "note": "Some of the results follow."}
{"binder": "B1", "values": [{"measurement": "glycan array binding signal (z-score)", "setting": "[1]", "value": -0.087}, {"measurement": "glycan array binding signal (z-score)", "setting": "Neu5Ac(a2-8)Neu5Ac", "value": -0.074}, {"measurement": "glycan array binding signal (z-score)", "setting": "[2]", "value": -0.084}, {"measurement": "glycan array binding signal (z-score)", "setting": "[3]", "value": -0.068}, {"measurement": "glycan array binding signal (z-score)", "setting": "[4]", "value": -0.084}, {"measurement": "glycan array binding signal (z-score)", "setting": "[5]", "value": -0.083}, {"measurement": "glycan array binding signal (z-score)", "setting": "[6]", "value": -0.076}, {"measurement": "glycan array binding signal (z-score)", "setting": "[7]", "value": -0.083}, {"measurement": "glycan array binding signal (z-score)", "setting": "[8]", "value": -0.08}, {"measurement": "glycan array binding signal (z-score)", "setting": "[9]", "value": -0.085}, {"measurement": "glycan array binding signal (z-score)", "setting": "[10]", "value": -0.082}, {"measurement": "glycan array binding signal (z-score)", "setting": "[11]", "value": -0.062}, {"measurement": "glycan array binding signal (z-score)", "setting": "[12]", "value": -0.078}, {"measurement": "glycan array binding signal (z-score)", "setting": "[13]", "value": -0.085}, {"measurement": "glycan array binding signal (z-score)", "setting": "[14]", "value": -0.082}, {"measurement": "glycan array binding signal (z-score)", "setting": "Neu5Ac(b2-6)GalNAc", "value": -0.082}, {"measurement": "glycan array binding signal (z-score)", "setting": "[15]", "value": -0.082}, {"measurement": "glycan array binding signal (z-score)", "setting": "[16]", "value": -0.045}, {"measurement": "glycan array binding signal (z-score)", "setting": "[17]", "value": -0.073}, {"measurement": "glycan array binding signal (z-score)", "setting": "[18]", "value": -0.078}, {"measurement": "glycan array binding signal (z-score)", "setting": "[19]", "value": -0.074}, {"measurement": "glycan array binding signal (z-score)", "setting": "Neu5Gc(a2-3)Gal(b1-4)Glc", "value": -0.068}, {"measurement": "glycan array binding signal (z-score)", "setting": "[20]", "value": -0.084}, {"measurement": "glycan array binding signal (z-score)", "setting": "[21]", "value": -0.074}, {"measurement": "glycan array binding signal (z-score)", "setting": "[22]", "value": -0.074}, {"measurement": "glycan array binding signal (z-score)", "setting": "[23]", "value": -0.076}, {"measurement": "glycan array binding signal (z-score)", "setting": "Neu5Gc(a2-6)GalNAc", "value": -0.075}, {"measurement": "glycan array binding signal (z-score)", "setting": "[24]", "value": -0.085}, {"measurement": "glycan array binding signal (z-score)", "setting": "[25]", "value": -0.087}, {"measurement": "glycan array binding signal (z-score)", "setting": "[26]", "value": -0.078}, {"measurement": "glycan array binding signal (z-score)", "setting": "[27]", "value": -0.082}, {"measurement": "glycan array binding signal (z-score)", "setting": "[28]", "value": -0.07}]}
